In all, about 45,000 compounds went through this assay and about 200 (0.44%) were called active. Inconclusive results (about 7%) are left out. The call rests on the fitted dose curve; in most records, active means well fitted activation curve with a large enough effect; inconclusive means small, poorly fitted or top-dose-only effect; inactive means no such curve, though single readings can be large or run the other way. Some of the results follow.
assay: qHTS of TDP-43 Inhibitors: NCGC Sytravon Library Screen; conditions: yeast TDP-43 toxicity rescue, BacTiter-Glo growth, 24 h; series mostly up to 46.1 µM; growth rescue (activation): at the top concentration; further: 0% is about no effect; nearly all actives have a fitted effect of over 55% in size
Outline: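 TDP-43-expressing yeast, pregrown in raffinose, seeded at OD600 0.02 in galactose medium with compound for 24 hr at 30 deg C. Growth read by BacTiter-Glo luminescence, so rescue of toxicity appears as activation.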

Row | Compound | growth rescue (activation)
1 | O=C(CSc1nnc(-c2ccncc2)s1)Nc1ccc(Cl)c(C(=O)O)c1 | inactive: 13.8%
2 | COc1ccccc1N1CCN(C(=O)CSc2nc3ccccc3nc2N2CCC(C)CC2)CC1 | inactive: -11.2%
3 | Cc1nc2ccccc2n1CCOc1ccc([N+](=O)[O-])cc1 | inactive: 3.71%
4 | CN(NC(=O)/C=C/C(=O)O)c1ncc(C(F)(F)F)cc1Cl | inactive: -5.44%
5 | Cc1ccc(CN(C)c2nc(-c3cccnc3)nc3ccccc23)o1 | inactive: -14.8%
6 | CN(C(=O)COc1ncnc2ccccc12)C1CCCCC1 | inactive: -2.82%
7 | COc1ccc(CNCc2cccc(OC)c2OC)cc1Br | inactive: -6.33%
8 | CCc1nc2c(OCc3ccc(C#N)cc3)cccn2c1N(C)C(=O)c1ccc(C)cc1 | inactive: 26.7%
9 | CCOC(=O)N/N=C\c1ccc(-c2cc(Cl)ccc2Cl)o1 | inactive: 3.82%
10 | CCC(C)N(C(=O)c1csnn1)C(C(=O)NCc1ccc(F)cc1)c1ccccc1F (stereo unspecified) | inactive: 4.1%
11 | Cc1cc2cc3c(cc2nc1SCc1ccc(C(=O)O)cc1)OCCO3 | inactive: -13.5%
12 | O=C(NC1CC2CCCC(C1)N2C(=O)Nc1ccccc1Cl)C1CC1 (stereo unspecified) | inactive: 1.17%
13 | O=C(Nc1nnc([C@@H]2C[C@H](O)[C@@H](CO)O2)s1)c1cccc(Oc2ccccc2)c1 | inactive: 7.16%
14 | Cc1nc2ccccc2c(=O)n1/N=C/c1cn[nH]c1-c1ccccc1 | inactive: -5.9%
15 | CS(=O)(=O)Cc1ccc(C(=O)Nc2cccc(-c3nc4ccccc4[nH]3)c2)cc1 | inactive: 7.7%
16 | COCCn1c(=N)c(C(=O)NCCc2ccc(OC)cc2)cc2c(=O)n3cccc(C)c3nc21 | inactive: -11.5%
17 | Cc1ccc2[nH]cc(CCNC(=O)c3ccco3)c2c1 | inactive: 4.58%
18 | COc1ccc(CCNC2=C(Cl)C(=O)N(Cc3ccccc3)C2=O)cc1OC | inactive: 6.85%
19 | O=C(Nc1ccccc1C(=O)N1CCCCCC1)c1ccccc1 | inactive: 13%
20 | CCOC(=O)C1=C(C)NC(=S)NC1c1ccco1 (stereo unspecified) | inactive: -16.1%
21 | COc1cc(/C=C/C(=O)O)ccc1S(=O)(=O)N1CCCc2ccccc21 | inactive: -6.02%
22 | O=C(CSc1nc(C2CC2)nc2ccccc12)N1CCCCC1 | inactive: -1.74%

Row | Compound | growth rescue (activation)
23 | COc1ccccc1NC(=S)N(Cc1ccc(C(=O)O)cc1)Cc1ccc(OC)c(OC)c1 | inactive: 2.58%
24 | S=C(NCC(c1ccco1)N1CCCC1)Nc1ccccc1 (stereo unspecified) | inactive: 12.7%
25 | C/C(=N\NC(=O)c1cc(Br)ccc1O)c1cccs1 | inactive: -10.4%
26 | COC(=O)c1cccc(N(C(=O)CNC(=O)c2cccs2)C(C(=O)NCC2CCCO2)c2ccc(OC)c(OC)c2)c1 (stereo unspecified) | inactive: 3.36%
27 | CC1CC(NC(=O)N(C)C)N(C)C(=O)N1 (stereo unspecified) | inactive: 1.77%
28 | CCCc1nc2c(c(=O)c3ccccc3n2C)c(=O)n1-c1ccc(F)cc1 | inactive: 1.1%
29 | Cc1ccc(C(O)(C(=O)NN(C(=O)c2ccccc2)c2ccccc2)c2ccc(C)cc2)cc1 | inactive: 25.1%
30 | COc1cccc(N(CC(=O)NCc2ccco2)C(=O)CCC(=O)Nc2nccs2)c1 | inactive: -8.7%
31 | COc1cc(OC)cc(C(=O)NCCNC(=O)c2ccccn2)c1 | inactive: -11.7%
32 | CCCC1(c2ccccc2)NC(=O)N(CCN2C(=O)c3ccccc3C2=O)C1=O (stereo unspecified) | inactive: 24.7%
33 | COc1cccc(NC(=O)Cc2nc(-c3ccccc3)sc2-c2ccc(C)cc2)c1 | inactive: 3.71%
34 | O=C(c1ccccc1)N1CCN(C(=O)c2nn3c(C(F)(F)F)cc(-c4ccccc4)nc3c2Br)CC1 | inactive: 4.88%
35 | CCc1ccc(C(O)c2ncc(-c3ccccc3F)[nH]2)cc1 (stereo unspecified) | inactive: 7.68%
36 | O=C1/C(=C/c2ccsc2)N2CCC1CC2 | inactive: 3.09%
37 | Cc1cccc(OCc2nnc(SCC(=O)N3CCCC3)o2)c1 | inactive: -5.8%
38 | CCOC(=O)C1(C)CCN1C(=O)c1ccccc1Br (stereo unspecified) | inactive: -4.19%
39 | Cc1cc(NC(=O)c2ccc(Cl)cc2)c(C)cc1O | inactive: 0.258%
40 | CC(=O)/C(N=Nc1ccc2c(c1)OCO2)=C(\C)O | inactive: 10.8%
41 | O=c1[nH]nc(SCc2cc(Cl)ccc2Cl)c(=O)[nH]1 | inactive: 7.73%
42 | CCN(CC)CCOC(=O)c1ccc(NC(=O)CCCN2C(=O)S/C(=C/c3ccc(OC)cc3)C2=S)cc1 | inactive: 8.63%
43 | Cc1ccc(C(O)(C(=O)NNc2ccc3ccccc3n2)c2ccc(C)cc2)cc1 | inactive: 17.4%
44 | COc1ccc(S(=O)(=O)N2CCOCC2)cc1NC(=O)CSc1nc(C)c(C)c(C)n1 | inactive: 14.7%

Row | Compound | growth rescue (activation)
45 | CCNS(=O)(=O)c1ccc(CCC(=O)O)cc1 | inactive: -8.34%
46 | CC(=O)NC(c1cccc(F)c1)c1nc(-c2csc3ccccc23)cs1 (stereo unspecified) | inactive: 9.07%
47 | CCOc1ccc(S(=O)(=O)N2CCCC(C(=O)N3CCN(CC)CC3)C2)cc1Cl (stereo unspecified) | inactive: 3.28%
48 | CCCC1=NN(c2ccc([N+](=O)[O-])cc2)C(=O)/C1=C\N(C)C | inactive: 13.8%
49 | CCOC(=O)C1(CCc2ccccc2)CCN(C(=O)CN2CCOC2=O)CC1 | inactive: 9.08%
50 | COc1ccc(Cn2nnnc2C(c2cc3cccc(C)c3[nH]c2=O)N2CCN(C)CC2)cc1 (stereo unspecified) | inactive: 6.97%
51 | Cc1ccc(Cc2cnc(NC(=O)/C(C#N)=C/c3ccc(-c4ccccc4[N+](=O)[O-])o3)s2)cc1 | inactive: 28.6%
52 | CC(C)c1ccc(NCCC(=O)c2cccs2)cc1 | inactive: 20.1%
53 | COc1ccc(C(=O)Nc2noc3ccccc23)cc1 | inactive: 4.47%
54 | C=CCC1(CC=C)CCCN1C(=O)CC1C(=O)NCCN1Cc1cc(OC)cc(OC)c1 (stereo unspecified) | inactive: 7.9%
55 | Cc1cc(C)n(C(=O)CNC(=O)c2ccc(Cl)cc2Cl)n1 | inactive: 22.7%
56 | CCCSCC(=O)Nc1ncc2c(n1)-c1ccccc1CC2 | inactive: 10.3%
57 | O=C(CCCn1c(=O)c2sccc2n(Cc2cccc(Cl)c2)c1=O)NCc1ccc2c(c1)OCO2 | inactive: 15.4%
58 | Cc1ccccc1C(=O)NC1CC2CCCC(C1)N2C(=O)Nc1ccccc1 (stereo unspecified) | inactive: 1.85%
59 | c1nc(N2CCC3(CC2)OCCO3)c2[nH]cnc2n1 | inactive: 17.1%
60 | COCCOC(=O)c1sc2nc[nH]c(=O)c2c1C | inactive: -18.8%
61 | CCOC(=O)c1ccc(NC(=S)N2CCCC(C(=O)N3CCCC3)C2)cc1 (stereo unspecified) | inactive: 8.49%
62 | O=C(CCCN1C(=O)c2ccccc2C1=O)Nc1nncs1 | inactive: 2.87%
63 | NS(=O)(=O)c1ccc(CCNC(=O)c2cc(=O)[nH]c3ccccc23)cc1 | inactive: -5.18%
64 | CS(=O)(=O)c1ccc(NCC2CCCO2)c([N+](=O)[O-])c1 (stereo unspecified) | inactive: -13.3%
65 | COc1cccc(NC(=S)N2C3CCCC2CC(NC(=O)C2CC2)C3)c1 (stereo unspecified) | inactive: -1.65%
66 | Cc1c(C(=O)CN2CCN(c3ccccc3)CC2)c2ccccc2n1C | inactive: 7%

Row | Compound | growth rescue (activation)
67 | N#C/C(=C/c1ccco1)C(N)=S | inactive: 6.85%
68 | CCN1CCCc2cc(CN(CCN3CCOCC3)C(=S)Nc3cccc(Cl)c3)ccc21 | inactive: -10.4%
69 | CN(C)S(=O)(=O)c1ccc(Cl)c(NC(=O)CN2C(=O)NC3(CCCC3)C2=O)c1 | inactive: -4.69%
70 | Cc1ccc(S(=O)(=O)/N=C(/c2ccc(F)cc2)N(C)C)cc1 | inactive: 2.85%
71 | COC(=O)c1ccc(C(=O)OC)c(NC(=O)CSc2n[nH]c(N)n2)c1 | inactive: 2.71%
72 | O=C(CN1CCN(Cc2ccc(Cl)cc2)CC1)N1CCc2ccccc21 | inactive: 1.49%
73 | O=c1/c(=C/c2ccc(O)c([N+](=O)[O-])c2)sc2nc3ccccc3n12 | inactive: -6.07%
74 | COc1ccccc1N(CC(=O)NCCN1CCOCC1)S(=O)(=O)c1ccccc1 | inactive: -2.08%
75 | O=C(NCC1CCCO1)c1nc(Cn2ccc([N+](=O)[O-])n2)no1 (stereo unspecified) | inactive: 8.2%
76 | OC(CNCC1CCCCC1)COc1ccccc1 (stereo unspecified) | inactive: -2.62%
77 | O=C(NCCc1ccccc1)c1ccc2c(c1)OCO2 | inactive: -4.96%
78 | Cc1cccc(-c2nc3c(c(=O)c4ccccc4n3C)c(=O)n2-c2ccccc2)c1 | inactive: 2.5%
79 | Cc1cc(=O)[nH]c(N/N=C/c2ccc(-c3ccc([N+](=O)[O-])cc3)o2)n1 | inactive: -0.0333%
80 | O=C(CCn1c(=O)c2sccc2n(Cc2cccc(F)c2)c1=O)NCc1ccc2c(c1)OCO2 | inactive: 12.4%
81 | Cc1cc(C)c(C(=O)COC(=O)CN2C(=O)NC3(CCCC3)C2=O)cc1C | inactive: 4.19%
82 | COc1ccc(C(=O)NCCNC(=O)c2ccc(C)nc2)cc1 | inactive: -4.87%
83 | Cc1cc(C)n2c(SCC(=O)Nc3cc(S(=O)(=O)N(C)C)ccc3C)nnc2n1 | inactive: 11.4%
84 | COc1ccc(NC(=O)N2CCCC2C(=O)Nc2cccc(C)c2C)cc1 (stereo unspecified) | inactive: 4.99%
85 | O=C(CN1C(=O)COc2ccc(S(=O)(=O)N3CCCC3)cc21)NCc1ccccn1 | inactive: -13.7%
86 | O=C(Nc1nc(-c2ccccc2)cs1)c1cccc(S(=O)(=O)N2CCN(Cc3ccccc3)CC2)c1 | inactive: 12.8%
87 | Cc1ccc(Oc2ccc(Cl)cc2NC(=O)c2cnccn2)cc1 | inactive: -9.88%
88 | Cc1cccc(OCCOC(=O)c2c(-c3ccccc3)noc2C)c1 | inactive: 13.7%

Row | Compound | growth rescue (activation)
89 | CCOC(=O)C1CCN(C(=O)CN2C(=O)NC(C)(c3ccc4cc(OC)ccc4c3)C2=O)CC1 (stereo unspecified) | inactive: 4.15%
90 | CC(C)Cc1nc(C#N)c(N2CCC(C(N)=O)CC2)o1 | inactive: 5.34%
91 | COc1ccc(C(=O)Nc2c(-c3cccs3)c(=O)c3ccccc3n2C)cc1 | inactive: 0.999%
92 | O=C(NNC(=S)NCCc1ccccc1)c1ccc(Br)s1 | inactive: 16.4%
93 | O=C(Nc1nc2ccc([N+](=O)[O-])cc2s1)c1ccncc1 | inactive: 4.43%
94 | COc1cc(NC(=S)NC(=O)CC(C)C)ccc1NC(=O)c1cc2ccccc2o1 | inactive: 0.275%
95 | Cc1cc(C(=O)CSc2nnc(-c3ccco3)o2)c(C)n1CC1COc2ccccc2O1 (stereo unspecified) | inactive: 22.7%
96 | COc1ccc([N+](=O)[O-])cc1NC(=O)CCS(=O)(=O)c1ccc(Br)cc1 | inactive: -5.42%
97 | O=C(CN1CCSCC1)N/N=C/c1cccc(Cl)c1 | inactive: -1.38%
98 | COc1ccc(CNC(=O)c2cncc(Br)c2)cc1 | inactive: -15.1%
99 | Cc1cccc([N+](=O)[O-])c1NC(=O)CN(Cc1ccccc1)Cc1ccccc1 | inactive: -6.18%
100 | O=C(NCCN1CCOCC1)C(=O)NCc1ccc2c(c1)OCO2 | inactive: -17%
101 | Cc1ccc(CNS(=O)(=O)NCc2ccccc2F)cc1 | inactive: 19.8%
102 | N#Cc1c(-c2ccccc2)cc(-c2ccccc2)nc1Br | inactive: -19.4%
103 | CCOc1ccc(NS(=O)(=O)c2ccc3[nH]c(=O)cc(C(=O)O)c3c2)cc1 | inactive: 0.49%
104 | Cc1ccc(NC(=O)C2CCN(S(=O)(=O)c3cccc4nonc34)CC2)cc1 | inactive: 16.5%
105 | COc1cccc(C(=O)N2CCN(C3CCCCC3)CC2)c1 | inactive: -6.21%
106 | Cc1cccc(N2C(=O)c3cccc4c(N)ccc(c34)C2=O)c1 | inactive: 7.01%

Reference: PubChem BioAssay AID1347073 (National Center for Advancing Translational Sciences (NCATS), 2019)
